# From the supplement of paper PMC11417369
# ± gives the standard deviation of the averaged measurements. The list shows a part of the results.
# System: PfAP2-G AP2 domain (GST-tagged)
# Test: gcPBM binding intensity (ln(normalized median fluorescence intensity)); higher = stronger DNA binding
# Summary of the method: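 The binding buffer was 1× PBS containing 1% milk, 0.2 mg/ml BSA, 0.5% salmon testes DNA and 0.03% Triton X-100. In it, GST-tagged P. falciparum DNA-binding domains expressed in E. coli were applied for 1 h to an Agilent 4 × 180k array of primer-extended double-stranded 36-bp intergenic genomic probes plus negative controls. Binding intensity, read with Alexa488 anti-GST antibody and a 488 nm scan, is the highest Masliner-normalised natural-log median intensity across replicate spots of either probe orientation.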
row,Sequence,gcPBM binding intensity (ln)
1,ACCAAAAGGGGATGTAGTACAATATGATTAGAAGAA [XGTACX_site3773],11.4 ± 0.69
2,ATAATCTGACAAATGTGTACACATATATATATATAT [XGTACX_site2379],11.6 ± 0.97
3,AAATAATATATTCCTTGTACTTATTTCAATGAATTC [XGTACX_site7719],11.2 ± 0.98
4,GATGATTCAATTTATGCACACTAAAAATTAATTATA [CACACA_site4308],10.2 ± 0.21
5,CCATAGATATTTTATACACACATATAATATATTAAT [CACACA_site373],9.955 ± 0.064
6,AAAATACCCGGACACACACACATATATATATATATT [CACACA_site6137],10.9 ± 0.61
7,TAACTTCAAACAAAATATGGTAAAAGTGGTTGAAAA [CACACA_negctrl_site42],10.1 ± 0.14
8,TATCACAAAATATACTGTACATACAGGCAGTAATAT [XGTACX_site2487],11.2 ± 0.8
9,TTATAAAACCATGTCATCAACATAGGCACAAAAATG [CACACA_negctrl_site1160],10.3 ± 0.28
10,TAATTTGTTAAAGGTTCACATATGGTATATACTTCT [XGTACX_negctrl_site292],10.17 ± 0.042
11,TAATAAGGTTACAACAAACACACAAAGGAATATACA [CACACA_site4089],10.3 ± 0.15
12,GATATGATTAACTTATGTTATTCTTGATGGTTTCTT [GTGCAC_negctrl_site411],9.59 ± 0.23
13,CCACTGTATGAATGCACACATTCATAGAATTGCTAT [CACACA_site2676],10.3 ± 0.35
14,AAGAATCACCAAATATGTACACACCTTAACATGTTT [XGTACX_site4272],11.3 ± 0.74
15,ATATGTACATATCTCATGCACTTAACAAAAAAAAAG [GTGCAC_site9898],11.3 ± 1
16,TATATATTCATAAAGTGTACATGTTTATATATATAT [XGTACX_site7585],11.4 ± 0.66
17,TTATTTTTAATATCGGTGCAACAAAAAGGAAAAGAT [GTGCAC_site9482],10.5 ± 0.47
18,TATGTATAGATATATACACACTTCTGTGATACGAAA [CACACA_site7003],10 ± 0.14
19,TTATGATAACTTTGCACACACTTAGGAAAAGTTATG [CACACA_site6836],10.2 ± 0.18
20,TATTTTAACTTTTTTTCCTTTATTCATTTTTTTTTC [CACACA_negctrl_site971],9.69 ± 0.28
21,TTTTTTTTTTTATGTGCACACAAAAGATGCTTATAT [CACACA_site2347],10.6 ± 0.53
22,TGATGCAAGATATATACACACATATAAATATAAATA [CACACA_site7429],9.8 ± 0.042
23,ATCTTTATTTTTAGCGCACACATAAAATAATAATAA [CACACA_site3458],10.6 ± 0.4
24,CAAAGCATTTTATCTACACACATATATAAATAAATA [CACACA_site7500],9.865 ± 0.078
